# Measurements: PubChem BioAssay AID686978 (National Center for Advancing Translational Sciences (NCATS), 2013)
# Values joined by “and” are separate entries in the source; they are usually repeats but may differ in a detail not shown here. Equal values may be shown once. The whole screen tested about 420,000 compounds, of which about 64,000 (15%) were called active. The inconclusive results got no clear call from the source; some entries with a clear call stand among them for comparison. The call rests on the fitted dose curve; in most records, active means well fitted inhibition curve with a large enough effect; inconclusive means small, poorly fitted or top-dose-only effect; inactive means flat fitted curve, though single readings scatter. Where the call is inconclusive, the potency comes from a doubtful curve fit.
# Test: qHTS for Inhibitors of human tyrosyl-DNA phosphodiesterase 1 (TDP1): qHTS in cells in absence of CPT; further: nearly all actives have a fitted effect of over 55% in size
# Conditions: DT40 Tdp1-/- hTDP1 cells, no CPT, ATP luminescence, 48 h; activity change, negative = growth inhibition: at 46.2 µM (top of the series) unless noted
# How it was run: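 Luminescent ATP content (CellTiter-Glo) served as the growth readout. Knockout chicken DT40 cells expressing human TDP1 were exposed to compounds without camptothecin for a minimum 48 hr at 37 °C.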
# On the % scale 0 is the no-effect control and ±100 the full control effect; potency means the concentration at half of the fitted maximal effect; tags describe the fitted curve by direction and shape.
Compound,Potency,"activity change, negative = growth inhibition"
Cc1ccc(CNC(=O)Cc2noc3ccccc23)cc1,"inconclusive: 25.9 µM [inhibitor, single point]",–
O=C(Nc1ccc(NC(=O)C2CCCN2C(=O)OCc2ccccc2)cc1)c1ccco1 (configuration not stated),"inconclusive: 25.9 µM [inhibitor, single point]",–
Brc1ccc2c(c1)NC(c1cccnc1)=NC(c1ccccc1)=N2,"inconclusive: 25.9 µM [inhibitor, single point]",–
CCN1CCCC1CNc1ncnc2c1[nH]c1ccc(Cl)cc12 (configuration not stated),"inconclusive: 23.1 µM [inhibitor, single point]",–
CCCCCCCCNS(=O)(=O)CCNCCc1ccccc1,"inconclusive: 29.1 µM [inhibitor, single point]",–
COc1ccc(C(C#N)=Cc2cccc(OC)c2OC)cc1,active: 23.1 µM,–
O=c1oc2ccccc2cc1-c1nc2c(s1)CCCC2,"inconclusive: 29.1 µM [inhibitor, single point]",–
CCS(=O)(=O)N1Cc2ccccc2CC1C(=O)Nc1nc(C)cs1 (configuration not stated),"inconclusive: 29.1 µM [inhibitor, single point]",–
COC(=O)c1ccc(-c2noc(CN(Cc3nccn3C)C(C)C)n2)cc1,"inconclusive: 18.4 µM [inhibitor, single point]",–
CCc1ccc(NC(=O)CSc2nc(=O)n(CCN(C)C)c3c2CCCC3)cc1,"inconclusive: 25.9 µM [inhibitor, single point]",–
Cc1ccc(Cn2nnc3c(=O)n(CC(=O)NCc4ccc5c(c4)OCO5)cnc32)cc1,"inconclusive: 23.1 µM [inhibitor, single point]",–
CN(C[C@H](Cc1ccccc1)N(C[C@H](CC1CCCCC1)N(CCc1ccccc1)N=O)N=O)N=O,"inconclusive: 23.1 µM [inhibitor, partial curve]",–
CNS(=O)(=O)c1cnccc1N1CCN(c2cccc(C(F)(F)F)c2)CC1,"inconclusive: 29.1 µM [inhibitor, single point]",–
CCc1nc(N2CCC(C)CC2)c2oc3ccccc3c2n1,"inconclusive: 29.1 µM [inhibitor, single point]",–
CCc1cccc(C)c1Nc1c(-c2cccs2)nc2nc(C)cc(C)n12,"inconclusive: 29.1 µM [inhibitor, single point]",–
O=[N+]([O-])c1cccc(S(=O)(=O)Nc2ccc(S(=O)(=O)Nc3nccs3)cc2)c1,inactive,–
N#Cc1c(N)c(C(=O)c2ccc(Cl)cc2)n2c1CCC2,"inconclusive: 8.2 µM [inhibitor, partial curve]",–
CC(C)OC(=O)c1ccc(NCc2cc(O)ccc2O)cc1Cl,active: 2.59 µM,–
COc1ccc2nc(-c3ccccc3)cc(C(=O)OCC(=O)NC3CC3)c2c1,inactive,–
COc1ccc(NC(=O)C2CCCN2S(=O)(=O)c2ccc3c(c2)CCC(=O)N3)c(OC)c1 (configuration not stated),active: 16.4 µM,–
CCOc1cccc(-c2csc(C3COc4ccccc4O3)n2)c1 (configuration not stated),inactive,–
COC(=O)c1ccccc1NC(=O)c1cc(CN2CCOCC2)on1,inactive,–
Cc1ccc(CNc2ncnc3onc(C)c23)cc1,active: 14.6 µM,–
COc1ccc(C(C)=O)cc1CSc1nnc(Nc2ccccc2C)s1,"inconclusive: 18.4 µM [inhibitor, single point]",–

Compound,Potency,"activity change, negative = growth inhibition"
CCN(CC)c1ccc(NC(=O)CCS(=O)(=O)c2ccc3c(c2)oc(=O)n3C)c(C)c1,inactive,–
CCOC(=O)c1cc(-c2ccccc2)sc1NC(=O)COC(=O)c1cccc(S(N)(=O)=O)c1,active: 10.3 µM,–
COc1ccc(-c2cc(C(F)(F)F)nc(SCC(=O)NCc3cccs3)n2)cc1OC,"inconclusive: 18.4 µM [inhibitor, single point]",–
CCn1c(=N)c(S(=O)(=O)c2ccc(F)cc2)cc2c(=O)n3ccccc3nc21,"inconclusive: 25.9 µM [inhibitor, single point]",–
Cc1cc2[nH]c(=O)c(=O)[nH]c2cc1S(=O)(=O)Nc1ccccc1F,inactive,–
C=CCSC1=NNC(c2ccc(C(C)(C)C)cc2)=NN1,"inconclusive: 18.4 µM [inhibitor, single point]",–
COc1ccc(-c2onc(C)c2C)cc1S(=O)(=O)Nc1cc(Cl)ccc1C,active: 3.66 µM,–
COc1ccccc1NS(=O)(=O)c1cc(N)ccc1N1CCCCC1,–,inconclusive: -39% [inhibitor]
COc1ccc(/C=N/NC(=O)CN2CCSCC2)cc1C,inactive,–
S=c1[nH]nc(COc2ccc(Cl)cc2)n1-c1ccccc1,"inconclusive: 23.1 µM [inhibitor, single point]",–
COc1cc(CCC(=O)OCC(=O)Nc2ccc(F)cc2F)cc(OC)c1OC,inactive,–
COc1ccccc1N1CCN(C2CCN(S(=O)(=O)c3ccc4ccccc4c3)CC2)CC1,"inconclusive: 20.6 µM [inhibitor, single point]",–
COC(=O)C1=CN(CCOC23CC4CC(CC(C4)C2)C3)C=C(C(=O)OC)C1c1ccsc1,active: 11.6 µM,–
CC(C)OCCCn1c(=O)c2ccccc2n2c(-c3cc(Cl)ccc3O)nnc12,active: 18.4 µM,–
CCc1nc(N)nc(N)c1-c1ccc(NCCN)c([N+](=O)[O-])c1,active: 2.59 µM,–
O=C1C2C3C=CC(CC3)C2C(=O)N1c1ccc(Br)cc1 (configuration not stated),inactive,–
COc1cc([N+](=O)[O-])ccc1NC(=O)CSc1n[nH]c(C(C)C)n1,inactive,–
COCc1ccc(CN2CCCC(CO)(Cc3ccccc3)C2)o1 (configuration not stated),"inconclusive: 29.1 µM [inhibitor, single point]",–
COc1ccccc1-c1cc(C(F)(F)F)nc(S(=O)(=O)CCCC(=O)Nc2cc(C)on2)n1,active: 1.03 µM,–
Cc1ccc(NC(=S)N(CCN(C)C)C(C)c2ccco2)cc1Cl (configuration not stated),"inconclusive: 29.1 µM [inhibitor, single point]",–
NC(Cc1c[nH]c2ccccc12)C(=O)NCc1ccccc1 (configuration not stated),–,inconclusive: -34.5% [inhibitor]
CCCOc1ccc(C2c3c(-c4ccccc4O)n[nH]c3C(=O)N2Cc2cccnc2)cc1 (configuration not stated),"inconclusive: 29.1 µM [inhibitor, single point]",–
CCCCCCn1c(SCC(=O)Nc2cc(C)on2)nc2ccccc2c1=O,active: 10 µM,–
CCN(CC)c1ccc(NC(=O)C2CC3CCC2C3)cc1 (configuration not stated),"inconclusive: 29.1 µM [inhibitor, partial curve]",–

Compound,Potency,"activity change, negative = growth inhibition"
C=CCOC(=O)c1sc(NC(=O)c2ccc(OC)cc2)nc1C,inactive,–
CCOc1ccc(-c2cc(C(=O)NCCCOC)c3c(-c4ccc(CC)cc4)[nH]nc3n2)cc1,"inconclusive: 29.1 µM [inhibitor, single point]",–
COc1cc2c(cc1OC)C(COc1ccc(F)cc1)N(C(=O)Cc1ccccc1)CC2 (configuration not stated),"inconclusive: 18.4 µM [inhibitor, single point]",–
CC(C)c1ccc(OCC(=O)N(Cc2ccccc2)c2ccccn2)cc1,active: 16.4 µM,–
COc1cc(C(=O)Nc2ccc(-c3nc4ccccc4o3)c(O)c2)cc(OC)c1OC,inactive,–
COc1ccc(CCNC(=O)C(Sc2ccccn2)c2ccccc2)cc1OC (configuration not stated),"inconclusive: 29.1 µM [inhibitor, single point]",–
CC(=O)N1c2ccccc2N(Cc2ccc(C)cc2C)C(=O)C1(C)C,active: 5.8 µM,–
CCc1ccccc1NC(=O)CSc1nnc(COc2ccccc2Cl)o1,inactive,–
COc1cccc(/C=N/n2c(-c3cc(C)[nH]n3)n[nH]c2=S)c1,–,inconclusive: -34.4% [inhibitor]
O=C(Cc1ccccc1F)Nc1cc(S(=O)(=O)N2CCOCC2)ccc1N1CCOCC1,inactive,–
COC(=O)c1cc(NS(=O)(=O)c2ccc(N3CCOCC3)c(NC(C)=O)c2)cc(C(=O)OC)c1,inactive,–
Cc1onc(-c2ccccc2)c1C(=O)NCCc1c[nH]c2ccccc12,"inconclusive: 20.6 µM [inhibitor, single point]",–
CCc1cc(=O)oc2c3c(cc(OCC(=O)NCCN4CCOCC4)c12)OC(C)(C)CC3,"inconclusive: 18.4 µM [inhibitor, single point]",–
CCOC(=O)c1sc2ncnc(N3CCN(c4ccc(OC)cc4)CC3)c2c1C,"inconclusive: 29.1 µM [inhibitor, single point]",–
O=C(CSc1ncnc2c1nnn2Cc1ccc(F)cc1)NCC1CCCO1 (configuration not stated),"inconclusive: 29.1 µM [inhibitor, single point]",–
COc1cc(-c2nc3oc4ccccc4c(=O)c3c(=O)n2Cc2ccco2)cc(OC)c1OC,active: 20.6 µM,–
COC(=O)c1cc(S(=O)(=O)N2CCN(c3ccccc3)CC2)c[nH]1,"inconclusive: 25.9 µM [inhibitor, partial curve, poor fit]",–
CC1(C)CN(c2ccccc2)N(C(=O)c2ccc(C#N)cc2)C1=O,–,inconclusive: -32.2% [inhibitor]
Cc1ccc(C)c(S(=O)(=O)N2CCN(C(=O)C3CCN(c4ncnc5sc(C)c(C)c45)CC3)CC2)c1,active: 10.3 µM,–
C[C@H](CO)NC(=O)[C@H](C)[C@H]1C[C@]1(C)[C@H](NC(=O)OCc1ccccc1)c1ccccc1,"inconclusive: 25.9 µM [inhibitor, single point]",–
CCOc1cc2[nH]c(=S)n(C(C)C)c(=O)c2cc1OCC,"inconclusive: 29.1 µM [inhibitor, single point]",–
O=S(=O)(NCC(c1ccccc1)N1CCc2ccccc21)c1ccccc1 (configuration not stated),"inconclusive: 23.1 µM [inhibitor, single point]",–
CCn1c(=N)c(C(=O)NCC2CCCO2)cc2c(=O)n3cc(C)ccc3nc21 (configuration not stated),inactive,–
COCc1nc2ccccc2n1Cc1cccc(C)c1,"inconclusive: 8.2 µM [inhibitor, single point] and inconclusive: 16.4 µM [inhibitor, single point]",–
